In the supplement of paper PMC12217912:
Some of the results follow. Sequences were assembled here from the parent chain. Inactive controls read about 0.05.

B1: TEV protease; numbered along this chain (parent)
chain: MGESLFKGPRDYNPISSSICHLTNESDGHTTSLYGIGFGPFIITNKHLFRRNNGTLVVQSLHGVFKVKDTTTLQQHLVDGRDMIIIRMPKDFPPFPQKLKFREPQREERICLVTTNFQTKSMSSMVSDTSCTFPSGDGIFWKHWIQTKDGQCGSPLVSTRDGFIVGIHSASNFTNTNNYFTSVPKNFMELLTNQEAQQWVSGWRLNADSVLWGGHKVFMVKPEEPFQPVKEATQL

Variants of: B1
Assay: raw area under fraction-flipped curve 0-4 h after induction (AUC4h, not background-subtracted), DNA-recorder readout of cleavage of the substrate (dimensionless); higher = more cleavage of the substrate by the protease variant
Conditions: temperature: 34 °C; time window: 0-4 h after rhamnose induction
Method: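 In vivo DNA recorder in E. coli TOP10(DE3) ΔrhaA at 34 °C. Each TEVp single-site mutant (parent TEVp 0) is paired with a single-site variant of the 7-mer TEVs (canonical ENLYFQ|S). The substrate sits between flexible linkers in a Bxb1-sfGFP-TEVs-SsrA fusion, so cleavage stabilises Bxb1 and speeds flipping of a recombination array, read by NGS. The value is the raw area under the fraction-flipped curve over 0-4 h after rhamnose induction (AUC4h), with ≥20 reads per time point. It is not background-subtracted; inactive controls average about 0.047.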
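Also: Bxb1 expression induced with 0.2% (w/v) L-rhamnose at OD600 near 0.5, cultures sampled hourly, flipped fraction per protease–substrate barcode pair counted by paired-end Illumina sequencing.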

Variant	area with substrate ENAYFQS	area with substrate ENCYFQS	area with substrate ENDYFQS	area with substrate ENFYFQS	area with substrate ENGYFQS	area with substrate ENHYFQS	area with substrate ENIYFQS	area with substrate ENKYFQS	area with substrate ENMYFQS	area with substrate ENNYFQS	area with substrate ENPYFQS	area with substrate ENQYFQS	area with substrate ENRYFQS	area with substrate ENSYFQS	area with substrate ENVYFQS	area with substrate ENWYFQS	area with substrate ENEYFQS	area with substrate ENTYFQS	area with substrate ENYYFQS
P9C	0.0521	0.0618	0.06	0.0695	0.0439	0.0568	0.113	0.0451	0.0781	0.0579	0.0624	0.058	0.0609	0.0486	0.0876	0.0692	–	–	–
P9R	0.068	0.0801	0.0561	0.0577	0.066	–	0.124	–	–	–	0.0442	0.0506	0.0524	0.0518	0.101	0.0489	0.0547	0.0481	–
T23A	0.057	0.066	0.0487	–	–	0.0672	–	0.0536	0.0674	–	0.0333	0.0673	–	0.0542	0.0804	–	0.0483	0.062	0.0567
T23E	0.0626	–	0.0632	0.068	0.0559	0.069	0.111	–	0.0696	0.0472	0.0274	0.0569	–	0.061	–	–	0.0571	0.0582	0.0647
T23K	0.055	0.0543	0.0693	0.0647	0.0531	0.0657	0.105	0.0635	–	–	0.0591	0.0568	0.0613	0.0667	0.0806	0.0506	0.0689	0.0664	–
S17P	0.0596	–	0.0639	0.0556	0.0458	0.0539	0.0929	0.0527	–	0.0395	0.0712	0.0595	0.0483	0.0599	0.0759	–	0.0555	0.0598	–
T30R	0.0666	0.0512	0.0595	0.0663	–	0.0644	0.0862	0.0617	–	0.0574	–	0.0565	0.0682	0.0516	0.0885	0.0362	0.0589	–	–
D11P	0.0642	0.0608	0.0666	0.064	0.0634	0.068	–	0.0517	0.0642	0.0766	0.0628	0.0712	–	0.0545	0.0559	–	0.0673	0.0672	0.0543
I19W	0.064	–	–	0.0511	0.0478	0.0438	–	0.0514	–	0.0554	–	0.0487	0.0487	0.0571	0.0519	–	0.0503	0.0351	0.0473
S4I	0.0596	0.0733	0.0627	0.0566	0.0265	0.0566	–	0.0683	0.0736	0.0613	–	0.0564	–	–	–	0.0358	0.0678	0.0567	0.0684
L22C	0.0626	0.0645	0.0662	0.0543	0.0634	–	–	0.0583	0.0606	–	0.0621	0.0585	0.069	0.0652	0.065	0.0441	0.062	0.043	–
L22S	0.0365	–	0.061	–	0.0471	0.0579	–	0.0424	–	0.0474	–	0.0452	0.0599	0.0572	0.0428	0.0294	0.0398	0.0593	0.043
L22D	0.0473	0.0562	0.0432	0.0446	0.0493	0.0437	0.0622	0.0462	0.0528	0.0408	0.0497	0.052	0.0502	0.0479	0.0498	0.0514	0.0537	0.0524	0.0524
L22H	0.0467	0.0506	0.0436	0.0465	0.0399	0.0469	0.0469	0.0476	0.0534	0.0292	0.0506	0.0473	0.0394	0.0445	0.0444	–	0.051	0.0484	–
L22Y	0.0505	0.0535	0.05	–	0.0571	–	0.0436	0.0473	–	–	0.0538	0.061	0.0384	0.0537	–	0.0334	0.0439	0.0473	–
G37A	0.0569	0.0762	–	0.0682	0.0657	–	0.096	0.0547	–	–	0.0629	–	–	0.028	0.0804	–	0.0708	0.0657	–
G37F	0.0471	0.059	0.0568	0.0573	0.0607	0.0494	0.0479	0.0491	0.0439	0.0543	0.0436	0.0449	0.0482	0.0499	0.0793	0.0597	0.0541	0.0481	0.0559
P14E	0.0453	0.0728	0.0607	–	0.0713	0.0712	0.113	–	0.0767	0.0665	0.0665	0.0521	0.0567	0.0773	0.0869	0.0536	0.0539	0.061	0.0494
P14H	0.0596	0.072	–	–	0.0492	–	–	0.0515	0.112	–	0.0501	0.0573	–	0.0616	–	–	0.0599	–	0.0665
P14K	0.0552	–	0.0659	–	–	0.0857	0.113	0.0648	0.123	0.0601	0.0502	0.0524	0.0636	0.0558	0.0916	–	0.0803	0.0329	0.0669
N13H	0.0728	0.0768	0.0623	0.0643	0.032	–	–	0.0607	0.0836	0.0588	0.0583	0.063	–	–	0.0754	–	0.0675	0.0656	–
N13M	0.0695	0.0855	0.0518	0.058	0.0527	0.0652	–	0.0709	0.058	–	0.063	0.0647	0.061	0.0637	0.0743	0.0601	0.063	0.0707	0.058
N13F	0.0581	0.0691	0.0675	0.056	0.0588	0.0586	–	0.0624	0.0687	0.0575	0.0536	0.0577	0.0544	0.0567	0.0616	0.0391	0.0596	0.0663	0.0844
